Reference: PubChem BioAssay AID504466 (National Center for Advancing Translational Sciences (NCATS), 2011)
Among all 330,000 compounds or so, about 4,200 (1.3%) were called active. The shares of active, inactive and inconclusive entries below differ from those in the screen. Calls come from the whole dose curve; as a rule, active = well fitted activation curve with a large enough effect; inconclusive = small, poorly fitted or top-dose-only effect; inactive = no such curve, though single readings can be large or run the other way. Potencies of inconclusive entries are doubtful fits and often do not repeat.
Potency is the fitted concentration of half-maximal effect; tags give direction and shape of the fitted curve.

Assay: qHTS screen for small molecules that induce genotoxicity in human embryonic kidney (HEK293T) cells expressing luciferase-tagged ELG1; note: nearly all actives have a fitted effect of over 60% in size; for activity change, positive = activation: % of control where 0% means no effect
Settings: HEK293T ELG1-luciferase reporter, luminescence, 16 h; series mostly up to 46 µM; activity change, positive = activation: at the top concentration
Outline: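 ELG1-luciferase HEK293T cells, 2,000/well; compound pinned in; 16 hr, 37 °C, 5% CO2; ONE-Glo, 30 min RT; luminescence on CCD imager.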
In the case of CC(/C=C/c1ccc(OCc2ccccc2)cc1)=N\O, the Potency is reported as active: 14.6 µM. With O=S(=O)(Nc1cccc(-c2ccc(N3CCOCC3)nn2)c1)c1ccc(Cl)c(Cl)c1 the Potency was inconclusive: 16.4 µM [activator, partial curve, poor fit]. In the case of CCCC(=O)OCC(=O)Nc1ccc2[nH]c(=O)[nH]c2c1, the “activity change, positive = activation” value is reported as inactive: 1.81%. In the case of COCc1cc(=O)[nH]c(Nc2nc3ccc(C)cc3o2)n1, the Potency is reported as active: 23.1 µM. In the case of O=[N+]([O-])c1ccc(C2=NCCO2)cc1, the “activity change, positive = activation” value is reported as inactive: 3.08%. With Cc1cc(C)n2nc(-c3ccccc3)cc2n1 the Potency was inconclusive: 6.51 µM [activator, partial curve]. With O=C(N/N=C/c1cc2c(cc1Cl)OCO2)c1ccc2c(c1)OCCO2 the “activity change, positive = activation” value was inactive: 9.22%. For Cc1c(C(=O)NCc2ccccn2)oc2ccc(S(=O)(=O)N3CCOCC3)cc12, the “activity change, positive = activation” value was inactive: -5.45%. With Fc1ccccc1-c1cc2cc3c(cc2cn1)OCO3 the Potency was inconclusive: 2.31 µM [activator, full curve]. For O=C(Oc1ccc(Nc2ncnc3ccccc23)cc1)c1cccnc1, the “activity change, positive = activation” value was inactive: 4.15%. In the case of CCOC(=O)CSC1=NC(=O)/C(=C\c2ccc(OC(C)=O)cc2)S1, the Potency is reported as inconclusive: 23.1 µM [activator, partial curve, poor fit]. For CC1(C)Cc2c(sc(NC(=O)c3ccc4ncsc4c3)c2C(N)=O)C(C)(C)N1, the Potency was active: 16.4 µM. In the case of Cc1cc(C(=O)OCC(=O)Nc2c(Cl)cccc2Cl)c(C)o1, the “activity change, positive = activation” value is reported as inactive: 3.58%. With Cc1ccc2nc(NC(=O)CSc3nc4ccccc4o3)sc2c1 the Potency was inconclusive: 20.6 µM [activator, single point]. In the case of CC(C)(C)c1ccc(NC(=O)COC(=O)C2=COCCO2)cc1, the Potency is reported as inconclusive: 20.6 µM [activator, single point]. With Cc1ccc(NC(=O)c2cccnc2)cc1C the Potency was inconclusive: 20.6 µM [activator, partial curve, poor fit]. In the case of CC1CC(C)CN(S(=O)(=O)c2ccc(NC(=O)CN3CCCCCC3)cc2)C1 (centres undefined), the Potency is reported as inconclusive: 13 µM [activator, partial curve]. With COC(=O)c1sc(NC(=O)COc2ccccc2)nc1C the Potency was active: 18.4 µM. With COc1ccc(-c2ccc(-c3nnc(-c4cc(OC)ccc4OC)o3)cc2)cc1 the “activity change, positive = activation” value was inactive: 15.7%. With O=C(Nc1nccs1)c1ccc(N2C(=O)C3CCCCC3C2=O)cc1 (centres undefined) the Potency was inconclusive: 18.3 µM [activator, single point]. With CCOc1ccc2nc(NC(=O)CSC3=NCCS3)sc2c1 the Potency was inconclusive: 20.6 µM [activator, partial curve, poor fit]. In the case of CN1CCN(S(=O)(=O)c2ccc(Oc3ccc(Br)cc3F)nc2)CC1, the Potency is reported as inconclusive: 20.6 µM [activator, single point]. In the case of CCOc1ccc(NC(=O)CN(C)C(=O)CSCc2cccc(C)c2)cc1OCC, the “activity change, positive = activation” value is reported as inactive: -2.32%. In the case of COc1cc(/C=N/Nc2ccccc2[N+](=O)[O-])cc(OC)c1O, the Potency is reported as inconclusive: 13 µM [activator, partial curve, poor fit]. For CCSc1nnc(NC(=O)c2ccc(C)cc2)s1, the Potency was active: 1.64 µM. With COc1ccc(C(=O)C2CCCN(C(=O)c3cccs3)C2)cc1F (centres undefined) the “activity change, positive = activation” value was inactive: -3.31%. With Cc1ccsc1C(=O)OCC(=O)NCc1ccc2c(c1)OCO2 the Potency was inconclusive: 32.6 µM [activator, partial curve, poor fit]. With CCOC(=O)c1cnc(SC)nc1N the “activity change, positive = activation” value was inactive: 11.7%. With COc1cc(-c2noc(C)c2-c2ccc(N(C)C)nc2)cc(OC)c1OC the Potency was inconclusive: 2.91 µM [activator, full curve, poor fit]. With Cc1ccc(Nc2nnc(SCn3nnc4ccccc4c3=O)s2)cc1 the Potency was inconclusive: 16.4 µM [activator, partial curve, poor fit]. With CCCCOc1ccc(C(=O)NCCc2cccs2)cc1 the Potency was inconclusive: 0.461 µM [activator, partial curve, poor fit]. With CN(C)c1ccc(/C=N/NC(=O)CN(c2ccccc2Cl)S(C)(=O)=O)cc1Br the “activity change, positive = activation” value was inactive: -6.04%. For O=C(COc1ccc(Cl)cc1)Nc1ccc2[nH]ncc2c1, the “activity change, positive = activation” value was inactive: -3.44%. With COc1ccc(C(=O)O/N=C(\N)c2ccc(OC)c(OC)c2)c(OC)c1 the Potency was inconclusive: 16.4 µM [activator, single point]. In the case of CC(=O)Nc1ccc(S(=O)(=O)Nc2cccc(C(=O)NC(C)(C)C)c2)cc1, the “activity change, positive = activation” value is reported as inactive: 0.26%. In the case of CC(C)(C)c1cc(NCCCn2ccnc2)n2ncc(-c3ccccc3)c2n1, the Potency is reported as inconclusive: 2.31 µM [activator, partial curve, poor fit]. In the case of CC(=O)Nc1ccc2nc(NC(=O)CCc3ccccc3)sc2c1, the “activity change, positive = activation” value is reported as inactive: -1.94%. For Cc1nc(NC(=O)c2ccc(Cl)cc2)sc1-c1csc(Nc2cccc(F)c2)n1, the “activity change, positive = activation” value was inactive: -2.98%. In the case of CSc1ccccc1NC(=O)Nc1cccc2ccccc12, the Potency is reported as inconclusive: 32.6 µM [activator, partial curve, poor fit].
